Laboratory results: patent US11618753B2 (priority 2018, dated 2023)

Each compound was assayed on MLKL phosphorylation, HT29-L23 human colorectal adenocarcinoma cells (assay: cells). Settings: read-out: pMLKL HCS Cell Assay (IC50, uM).

First: COc1ncc(-c2cc(C(F)(F)F)c3c(N)ncnn23)cc1C(=O)NC1CN(C(C)c2c(C)noc2C)C[C@@H]1F (stereo partly drawn) [Example 1401, 5-[4-amino-5-(trifluoromethyl)-pyrrolo[2,1-f][1,2,4]triazin-7-yl]-N-[(3R,4S)-1-[1-(3,5-dimethyl-1,2-oxazol-4-yl)-ethyl]-4-fluoropyrrolidin-3-yl]-2-methoxypyridine-3-carboxamide]
Second: COc1ncc(-c2cc(C(F)(F)F)c3c(N)ncnn23)cc1C(=O)N[C@@H]1CN(C(=O)CC2CC2(F)F)C[C@@H]1F (stereo partly drawn) [Example 1205, 5-[4-amino-5-(trifluoromethyl)pyrrolo[2,1-f][1,2,4]triazin-7-yl]-N-[(3R,4S)-1-[2-(2,2-difluorocyclopropyl)acetyl]-4-fluoropyrrolidin-3-yl]-2-methoxypyridine-3-carboxamide]
The IC50 of the first is 1.7-fold higher: 0.078 µM for the first, 0.046 µM for the second.

Compared with `CCc1ccc(-c2cc(C(F)(F)F)c3c(N)ncnn23)cc1C(=O)N[C@@H]1CN(C(=O)C2CC2(F)F)C[C@@H]1F` (stereo partly drawn) [Example 979, 5-[4-amino-5-(trifluoromethyl)pyrrolo[2,1-f][1,2,4]triazin-7-yl]-N-[(3R,4S)-1-(2,2-difluorocyclopropanecarbonyl)-4-fluoropyrrolidin-3-yl]-2-ethylbenzamide], `CC(C)C(=O)N1C[C@H](F)[C@H](NC(=O)c2cccc(-c3cc(C(F)(F)F)c4c(N)ncnn34)c2)C1` [Example 89, 3-[4-amino-5-(trifluoromethyl)pyrrolo[2,1-f][1,2,4]triazin-7-yl]-N-[(3R,4S)-4-fluoro-1-(2-methylpropanoyl)pyrrolidin-3-yl]benzamide] is 4.6-fold higher in IC50: 0.019 µM for the first, 0.087 µM for the second. The first is the more potent here.

First: COc1ncc(-c2cc(CN3CCC(F)(F)CC3)c3c(N)ncnn23)cc1C(=O)N[C@@H]1CN(C(=O)c2cccc(F)c2Cl)C[C@@H]1F [Example 1265, 5-{4-amino-5-[(4,4-difluoropiperidin-1-yl)methyl]pyrrolo[2,1-f][1,2,4]triazin-7-yl}-N-[(3R,4S)-1-(2-chloro-3-fluorobenzoyl)-4-fluoropyrrolidin-3-yl]-2-methoxypyridine-3-carboxamide]
Second: COc1ncc(-c2cc(CN3CC(F)(F)C3)c3c(N)ncnn23)cc1C(=O)N[C@@H]1CN(C(=O)[C@H]2CC2(F)F)C[C@@H]1F [Example 1558, 5-{4-amino-5-[(3,3-difluoroazetidin-1-yl)methyl]pyrrolo[2,1-f][1,2,4]triazin-7-yl}-N-[(3R,4S)-1-[(1R)-2,2-difluorocyclopropanecarbonyl]-4-fluoropyrrolidin-3-yl]-2-methoxypyridine-3-carboxamide]
The IC50 of the first is 12-fold lower: 0.00072 µM for the first, 0.0088 µM for the second.

Compared with `CCc1c(F)cc(-c2cc(C(F)(F)F)c3c(N)ncnn23)cc1C(=O)N[C@@H]1CN(C(=O)CC(C)C(F)(F)F)C[C@@H]1F` (stereo partly drawn) [Example 652, 5-[4-amino-5-(trifluoromethyl)pyrrolo[2,1-f][1,2,4]triazin-7-yl]-2-ethyl-3-fluoro-N-[(3R,4S)-4-fluoro-1-(4,4,4-trifluoro-3-methylbutanoyl)pyrrolidin-3-yl]benzamide], `COc1ncc(-c2c(C#N)cc3c(N)ncnn23)cc1C(=O)N[C@@H]1CN(C(=O)C2CCC(O)(C(F)(F)F)CC2)C[C@@H]1F` (stereo partly drawn) [Example 558, 5-(4-amino-6-cyanopyrrolo[2,1-f][1,2,4]triazin-7-yl)-N-((3R,4S)-4-fluoro-1-(4-hydroxy-4-(trifluoromethyl)cyclohexane-1-carbonyl)pyrrolidin-3-yl)-2-methoxynicotinamide] is 730-fold higher in IC50: 0.0086 µM for the first, 6.25 µM for the second.

With `COc1ncc(-c2cc(C(F)(F)F)c3c(N)ncnn23)cc1C(=O)Nc1cnn(Cc2ccccc2)c1` [Example 110, 5-[4-amino-5-(trifluoromethyl)pyrrolo[2,1-f][1,2,4]triazin-7-yl]-N-(1-benzyl-1H-pyrazol-4-yl)-2-methoxypyridine-3-carboxamide] the IC50 was 0.0012 µM.
